Laboratory results from PubChem BioAssay AID504332 (National Center for Advancing Translational Sciences (NCATS), 2011).
The campaign covered roughly 350,000 compounds. About 31,000 (8.9%) were called active. Inconclusive results, whose numbers are uncertain, are shown with a selection of clear calls. Calls come from the whole dose curve; as a rule, active = well fitted inhibition curve with a large enough effect; inconclusive = small, poorly fitted or top-dose-only effect; inactive = no such curve, though single readings can be large or run the other way. Potencies of inconclusive entries are doubtful fits and often do not repeat.

target: Histone-lysine N-methyltransferase EHMT2 (Homo sapiens) (UniProt Q96KQ7); assay: qHTS Assay for Inhibitors of Histone Lysine Methyltransferase G9a; conditions: G9a H3K9 monomethylation, AlphaScreen, 2 h; activity, negative = inhibition: at 59 µM (top of the series) unless noted; note: nearly all actives have a fitted effect of over 75% in size
Chain of UniProt Q96KQ7 (Q96KQ7 whole entry, looked up): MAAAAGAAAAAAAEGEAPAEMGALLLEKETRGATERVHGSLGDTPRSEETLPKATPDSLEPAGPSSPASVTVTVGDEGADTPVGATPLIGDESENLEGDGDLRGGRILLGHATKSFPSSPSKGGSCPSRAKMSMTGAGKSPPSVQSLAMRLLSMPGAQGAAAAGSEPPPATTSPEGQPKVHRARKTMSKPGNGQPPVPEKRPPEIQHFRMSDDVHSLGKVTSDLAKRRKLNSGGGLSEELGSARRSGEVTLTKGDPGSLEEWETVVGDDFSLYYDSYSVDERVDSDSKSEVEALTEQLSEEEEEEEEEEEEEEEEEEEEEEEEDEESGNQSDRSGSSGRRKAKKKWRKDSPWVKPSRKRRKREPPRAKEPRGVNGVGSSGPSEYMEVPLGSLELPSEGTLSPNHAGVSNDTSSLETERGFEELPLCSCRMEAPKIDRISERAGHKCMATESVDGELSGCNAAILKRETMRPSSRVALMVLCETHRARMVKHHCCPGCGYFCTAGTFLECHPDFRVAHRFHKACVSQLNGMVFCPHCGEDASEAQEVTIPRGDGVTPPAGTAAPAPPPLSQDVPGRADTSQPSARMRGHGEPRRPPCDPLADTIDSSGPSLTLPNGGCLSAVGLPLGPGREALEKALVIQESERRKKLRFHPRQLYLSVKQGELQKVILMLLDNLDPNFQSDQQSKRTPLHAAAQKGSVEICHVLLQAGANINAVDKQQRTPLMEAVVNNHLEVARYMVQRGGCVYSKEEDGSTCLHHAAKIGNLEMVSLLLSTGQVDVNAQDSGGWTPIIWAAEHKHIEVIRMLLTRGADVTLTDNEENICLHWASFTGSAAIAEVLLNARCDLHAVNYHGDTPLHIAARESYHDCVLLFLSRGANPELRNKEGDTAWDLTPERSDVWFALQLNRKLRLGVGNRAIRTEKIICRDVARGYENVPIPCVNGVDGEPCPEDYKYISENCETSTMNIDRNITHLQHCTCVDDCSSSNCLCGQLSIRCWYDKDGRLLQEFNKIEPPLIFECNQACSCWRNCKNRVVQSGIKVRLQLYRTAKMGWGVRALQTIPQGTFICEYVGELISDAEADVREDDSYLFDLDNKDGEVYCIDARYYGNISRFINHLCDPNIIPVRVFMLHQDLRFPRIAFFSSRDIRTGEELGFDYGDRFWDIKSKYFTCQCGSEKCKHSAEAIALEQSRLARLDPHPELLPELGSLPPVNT
Procedure, shortened: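 AlphaScreen read-out: biotin-H3K9 peptide (500 nM) methylation by 20 nM enzyme with 20 uM SAM, 2 h at room temperature after 15 min compound preincubation; anti-monomethyl H3K9 antibody plus donor/acceptor beads, 10 min dark.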
% is set by controls: 0 for no effect and ±100 for the full control effect; potency is the fitted concentration of half-maximal effect; tags give direction and shape of the fitted curve.

Row | Compound | activity, negative = inhibition | Potency
1 | Cc1ccc(NC(=O)/C(C#N)=C/c2cc(C)n(-c3ccc(Br)cc3)c2C)cc1C | inactive: 1.23% | –
2 | Cc1cc2ncn(CC3CC3(Cl)Cl)c2cc1C (configuration not stated) | – | inconclusive: 50.1 µM [inhibitor, partial curve, poor fit]
3 | Cc1ccc(-n2c(C)nn(Cc3ccc([N+](=O)[O-])cc3)c2=O)cc1 | inactive: -36.1% [at 102 µM] | –
4 | CCc1nnc(NC(=O)CSc2nc3ccc(OC)cc3[nH]2)s1 | inactive: 2.16% [at 102 µM] | –
5 | O=C(O)CCCCCNc1nc(=S)[nH]c2ccccc12 | – | inconclusive: 2.51 µM [inhibitor, full curve, poor fit]
6 | COc1ncccc1-c1nnn(-c2ccc(Cl)nc2)n1 | inconclusive: -71.7% [inhibitor] | –
7 | CC(=O)Nc1ccn(-c2ccccc2)n1 | – | inconclusive: 35.5 µM [inhibitor, single point]
8 | OCCN(Cc1ccccc1)Cc1cccc(C(F)(F)F)c1 | – | active: 17.8 µM
9 | Cc1ccc(NC(=O)CNC(=O)N2CC(=O)Nc3ccccc32)cc1F | inactive: 11.2% [at 102 µM] | –
10 | CCOC(=O)c1ccc(NC(=S)N2CCSC2c2ccc(Br)cc2)cc1 (configuration not stated) | – | inconclusive: 15.8 µM [inhibitor, partial curve, poor fit]
11 | CN(C(=O)COC(=O)COc1ccc2ccccc2c1)c1c(N)n(Cc2ccccc2)c(=O)[nH]c1=O | inactive: -36.7% [at 12.7 µM] | –
12 | CCOC(=O)c1[nH]cc(-c2ccccc2)c1N1CCOCC1 | – | inconclusive: 2.24 µM [inhibitor, partial curve, poor fit]
13 | Cc1oc(-c2ccc(C(=O)NC(C)c3ccccc3)cc2)nc1CS(=O)(=O)c1ccccc1 (configuration not stated) | inactive: -23% | –
14 | Cc1ccc(-c2csc3nc(SCC(=O)Nc4ccc(Cl)c(C(=O)O)c4)[nH]c(=O)c23)cc1 | – | active: 28.2 µM
15 | O=C(c1ccccc1F)N1CCC(c2nc3c(nnn3Cc3cccc(F)c3)c(=O)[nH]2)CC1 | – | active: 1 µM
16 | Cc1ccc(S(=O)(=O)c2cc3ccccc3oc2=Nc2ccc3c(c2)OCCO3)cc1 | – | inconclusive: 8.91 µM [inhibitor, full curve, poor fit]
17 | O=C(/C=C/c1ccc(Cl)cc1)Nc1nccs1 | inactive: -1.71% [at 102 µM] | –
18 | Cc1ccc(NC(=S)N(CCCN2CCC(C)CC2)Cc2ccco2)cc1 | inactive: -33.9% [at 102 µM] | –
19 | COc1ccc(Cl)cc1-n1c(=S)sc2c(=O)[nH]c(SCC(=O)NCCC(C)C)nc21 | – | inconclusive: 89.1 µM [inhibitor, single point]
20 | COc1ccc(-c2csc(N3CCC(C(N)=O)(N4CCCCC4)CC3)n2)cc1 | – | inconclusive: 3.16 µM [inhibitor, partial curve]
21 | c1ccc(-c2csc3ncnc(NCc4ccccn4)c23)cc1 | – | inconclusive: 39.8 µM [inhibitor, partial curve, poor fit]
22 | CCn1c(CCNC(=O)c2ccc(Cl)cc2)nnc1SCC(=O)NC1CCCC1 | inactive: 34.5% [at 12.7 µM] | –
23 | CC(=O)c1cccc2c(O)c(C3=Nc4ccccc4C3=O)[nH]c12 | – | inconclusive: 3.55 µM [inhibitor, partial curve, poor fit]
24 | Clc1cccc(Cl)c1COc1ccccn1 | inactive: 7.85% [at 102 µM] | –

Row | Compound | activity, negative = inhibition | Potency
25 | CC(=O)c1cccc(S(=O)(=O)N(C)C2CCN(C)CC2)c1 | – | inconclusive: 44.7 µM [inhibitor, partial curve, poor fit]
26 | OCCn1nc2c3ccccc3nc-2n(-c2ccccc2)c1=S | – | active: 25.1 µM
27 | CCOc1ccccc1NC(=O)CSc1ccc2nnc(CCNS(=O)(=O)c3ccccc3)n2n1 | inactive: -3.08% | –
28 | COCCNC(=S)NNC(=O)c1cc(-c2cccnc2)nc2ccccc12 | – | inconclusive: 50.1 µM [inhibitor, single point]
29 | Cc1c(C(=O)N2CCCC2)c(S(=O)(=O)N2CCCCC2)c(C)n1C | inactive: 4.26% | –
30 | NS(=O)(=O)c1cccc(NC(=O)CN2CCc3ccccc32)c1 | – | inconclusive: 44.7 µM [inhibitor, partial curve, poor fit]
31 | COc1ccc(OCC(=O)N(Cc2cccc(OC)c2)C2CCS(=O)(=O)C2)cc1 (configuration not stated) | inactive: -1.75% | –
32 | COc1cc(OC)c(NC(=O)c2cc(C(C)=O)n3ccccc23)cc1Cl | inactive: -12.6% | –
33 | Cc1ccc(C(=O)CSc2ccccn2)cc1 | – | active: 8.91 µM
34 | CC(CCc1ccccc1)NC(=O)CSc1cccc[n+]1[O-] (configuration not stated) | – | inconclusive: 79.4 µM [inhibitor, single point]
35 | CCOc1ccc(NC(=O)CN2C(=O)/C(=C3\SC(=S)N(C4CCS(=O)(=O)C4)C3=O)c3ccccc32)cc1 (configuration not stated) | inconclusive: -81.3% [inhibitor] | –
36 | O=C(C1CCC(C(=O)N2CCc3ccccc32)CC1)N1CCc2ccccc21 (configuration not stated) | – | inconclusive: 50.1 µM [inhibitor, partial curve]
37 | CN(C)CCNC(=O)CCCn1c(=O)c2cccn2c2ccccc21 | – | inconclusive: 12.6 µM [inhibitor, partial curve, poor fit]
38 | O=C(CCc1ccccc1)NC(=S)Nc1ccc(S(=O)(=O)N2CCOCC2)cc1 | – | inconclusive: 79.4 µM [inhibitor, single point]
39 | O=C1CC(C(=O)Nc2cc(Cl)ccc2Cl)n2ncnc2N1 (configuration not stated) | – | active: 10 µM
40 | CN(C)CCN(Cc1ccccc1)S(=O)(=O)c1ccc(-c2cc(C(F)(F)F)on2)s1 | inactive: -5.49% | –
41 | Cc1ccc(C)c(/C(O)=C2\C(=O)C(=O)N(CCCn3ccnc3)C2c2ccncc2)c1 (configuration not stated) | inconclusive: -66% [inhibitor] | –
42 | CCOC(=O)C1C(=O)NC(SCC(N)=O)=C(C#N)C1c1ccccc1OCC (configuration not stated) | – | active: 20 µM
43 | COc1ccc(-c2cnnn2-c2ccc(N)cc2)cc1OC | – | inconclusive: 25.1 µM [inhibitor, partial curve, poor fit]
44 | CN(C)c1ccc(N/C=C/C(=O)c2ccco2)cc1 | – | active: 7.08 µM
45 | COc1ccc(-n2cc(C(=O)N(C)c3cc(C)ccc3OC)c3ccccc3c2=O)cc1 | – | inconclusive: 7.08 µM [inhibitor, partial curve, poor fit]
46 | Cc1ccc(/C=N/Nc2nc(C(C)(C)C)cs2)o1 | – | active: 10 µM
47 | CCN1CCN(C(=O)C2CC(c3ccc(F)cc3)=NO2)CC1 (configuration not stated) | – | inconclusive: 44.7 µM [inhibitor, partial curve]
